According to PMC4336329 (PLoS ONE, 2015):
Screen size: about 310,000 compounds; about 14,000 (4.5%) showed an effect of 50% or more. The effect is printed as a negative number. This is one part of the list.

Each compound was assayed against human ether-à-go-go-related gene (hERG) potassium channel (human, UniProt Q12809) (assay: primary screen, population patch clamp on CHO cells stably expressing hERG).
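Also: peak tail current of the secondary pulse compared with the same well before compound.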

Sequence of human ether-à-go-go-related gene (hERG) potassium channel (Q12809 whole entry, looked up): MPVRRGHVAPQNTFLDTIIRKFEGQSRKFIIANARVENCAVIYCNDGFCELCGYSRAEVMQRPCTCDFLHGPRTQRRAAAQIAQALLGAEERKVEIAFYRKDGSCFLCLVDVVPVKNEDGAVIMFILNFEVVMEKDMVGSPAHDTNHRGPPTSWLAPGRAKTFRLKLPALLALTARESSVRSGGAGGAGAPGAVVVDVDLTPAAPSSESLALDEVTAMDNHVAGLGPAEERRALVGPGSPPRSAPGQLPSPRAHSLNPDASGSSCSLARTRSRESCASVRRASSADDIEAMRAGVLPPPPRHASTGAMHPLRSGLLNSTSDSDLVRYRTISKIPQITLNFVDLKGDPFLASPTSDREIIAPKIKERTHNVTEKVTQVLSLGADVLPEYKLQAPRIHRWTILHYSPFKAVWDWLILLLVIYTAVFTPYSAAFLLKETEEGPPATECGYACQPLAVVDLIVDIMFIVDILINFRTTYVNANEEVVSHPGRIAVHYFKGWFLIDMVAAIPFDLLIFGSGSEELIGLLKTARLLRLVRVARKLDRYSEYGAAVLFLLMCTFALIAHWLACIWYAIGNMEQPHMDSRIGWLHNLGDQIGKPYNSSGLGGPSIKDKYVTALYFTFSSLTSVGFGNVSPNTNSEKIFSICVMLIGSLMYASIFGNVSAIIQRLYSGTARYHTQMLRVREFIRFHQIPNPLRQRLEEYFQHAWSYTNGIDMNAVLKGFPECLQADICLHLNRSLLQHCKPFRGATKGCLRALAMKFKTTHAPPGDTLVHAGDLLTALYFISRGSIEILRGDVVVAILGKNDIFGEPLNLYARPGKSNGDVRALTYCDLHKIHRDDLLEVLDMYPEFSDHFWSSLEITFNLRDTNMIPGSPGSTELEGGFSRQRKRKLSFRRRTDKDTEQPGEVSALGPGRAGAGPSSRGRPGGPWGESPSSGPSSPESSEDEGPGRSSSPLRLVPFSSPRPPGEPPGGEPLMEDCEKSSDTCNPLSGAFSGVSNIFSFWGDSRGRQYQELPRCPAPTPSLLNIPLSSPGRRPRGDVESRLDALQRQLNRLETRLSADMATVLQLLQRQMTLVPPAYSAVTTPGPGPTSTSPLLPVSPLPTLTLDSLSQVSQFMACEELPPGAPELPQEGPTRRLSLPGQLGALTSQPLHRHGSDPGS

First: Fc1ccccc1CNc1nc(-c2cccnc2)nc2ccccc12
Second: O=c1c(C=NCCCn2ccnc2)c(-c2ccccc2)[nH]n1-c1nc2ccccc2s1
The “hERG current change (%, negative = inhibition) at 10uM” value of the first is higher: 17.8% for the first, -71.4% for the second.

Going from CCOC(=O)C1=C(CC)Nc2ccccc2N/C1=N\S(=O)(=O)c1ccc(C(=O)OCC)cc1 to CCOC(=O)c1c(C)n(OCc2ccccc2)c2ccc3c(no[n+]3[O-])c12, the “hERG current change (%, negative = inhibition) at 10uM” value falls from 8.68% to 4.39%.

First: COc1ccccc1NC(=O)NCC1CC1(Cl)Cl (stereo not shown)
Second: N#C/C(=C\c1ccc[nH]1)C(=O)Nc1ccccc1F
The “hERG current change (%, negative = inhibition) at 10uM” value of the first is higher: 7.22% for the first, -3.7% for the second.

Compared with CC(NC(=O)COc1ccccc1)C(c1cccs1)N1CCCC1 (stereo not shown), O=C(CN1CCCC1)Nc1nc(-c2ccc3c(c2)CCN3C(=O)c2ccccc2F)cs1 is higher in “hERG current change (%, negative = inhibition) at 10uM” value: -2.64% for the first, 3.76% for the second.

Going from C[C@H](NC(=O)c1nc[nH]c1C(=O)NC(c1ccccc1)c1ccccc1)C(=O)OCc1ccccc1 to O=c1[nH]cnc2c1c(-c1ccccc1)cn2-c1ccccc1, the “hERG current change (%, negative = inhibition) at 10uM” value falls from 19.3% to 12.1%.

Going from O=C(c1cccc(F)c1)N1CCN(c2ccc([N+](=O)[O-])c(N3CCCCC3)c2)CC1 to CS(=O)(=O)c1nc(S(=O)(=O)c2ccc(Cl)cc2)c(N2CCCCC2)s1, the “hERG current change (%, negative = inhibition) at 10uM” value rises from -6.87% to 16.4%.

Compared with COCCN1C(=O)c2cc(C(=O)Nc3ccc(OC)c(OC)c3)ccc2C1Nc1ccc(OC)c(OC)c1 (stereo not shown), COc1ccc(/C(C)=N/Nc2nc3ccccc3n3cnnc23)cc1OC is lower in “hERG current change (%, negative = inhibition) at 10uM” value: 5.08% for the first, -19.4% for the second.

First: CCOC(=O)c1c(NC(=O)CN2C(=O)NC3(CCCCC3)C2=O)sc(C)c1-c1ccc(C)cc1
Second: COc1ccc(C2=NCC(=O)N(CC(=O)NCc3ccco3)c3sc4c(c32)CCCC4)cc1OC
The “hERG current change (%, negative = inhibition) at 10uM” value of the first is higher: 5.69% for the first, -17.3% for the second.

Compared with CCOC(=O)c1ccc(NC(=S)N2CCN(CCN=CC3=C(O)CC(C)(C)CC3=O)CC2)cc1, CCOC(=O)c1[nH]cnc1C(=O)Nc1ccc(C)cc1 is higher in “hERG current change (%, negative = inhibition) at 10uM” value: -40.8% for the first, 11.6% for the second.

Compared with Cn1c(SCc2cccc(C(F)(F)F)c2)nnc1-c1ccco1, O=C1CC(N2CCN(S(=O)(=O)c3cccc(C(F)(F)F)c3)CC2)C(=O)N1Cc1ccccc1 (stereo not shown) is lower in “hERG current change (%, negative = inhibition) at 10uM” value: -14.1% for the first, -21.2% for the second.

Compared with CNc1nc(Oc2ccc(C(=O)OC)cc2)nc(SC)n1, COCC1CCCN(C(=O)c2cc(COc3ccc(C(C)=O)cc3)on2)C1 (stereo not shown) is higher in “hERG current change (%, negative = inhibition) at 10uM” value: 5.47% for the first, 12.7% for the second.

First: CCOC(=O)C(C(=O)OCC)C1CS(=O)(=O)CC1C(C(=O)OCC)C(=O)OCC (stereo not shown)
Second: COC(=O)C1=C(c2ccc(S(C)(=O)=O)cc2)C[C@@H]2CC[C@H]1N2C(=O)NCCNC(C)=O
The “hERG current change (%, negative = inhibition) at 10uM” value of the first is lower: 7.53% for the first, 14.6% for the second.

Compared with CCCCc1nc(NCCNC(=O)c2ccccc2)c(C#N)c2c1CSC(C)(C)C2, CCN(CC)CCn1c2c(c(SCC(=O)NCc3ccccc3)nc1=O)CCCC2 is lower in “hERG current change (%, negative = inhibition) at 10uM” value: -19.8% for the first, -31.4% for the second.

First: Cc1ccc(-n2c(SCC(=O)NCCN3C(=O)CSC3=O)nnc2-c2ccccc2)cc1C
Second: Cc1ccc(-n2ncc(C(=O)Nc3ccc(Cl)cc3)c2C2CCNCC2)cc1C.Cl
The “hERG current change (%, negative = inhibition) at 10uM” value of the first is higher: 1.18% for the first, -71.7% for the second.

First: Cc1cc(C)n(-c2ccc(Cl)c(C(=O)O)n2)n1
Second: C/C(O)=C(\N=Nc1cc(C)ccc1O)C(N)=O
The “hERG current change (%, negative = inhibition) at 10uM” value of the first is lower: -19.5% for the first, -3.44% for the second.

First: CC(=O)Nc1ccc(NC(=O)C(C)OC(=O)/C=C/c2ccc3c(c2)OCO3)cc1 (stereo not shown)
Second: CCN(CC)S(=O)(=O)c1ccc(C(=O)NCc2ccc3c(c2)OCO3)cc1
The “hERG current change (%, negative = inhibition) at 10uM” value of the first is lower: -24.3% for the first, 2.77% for the second.

Going from O=C(COC(=O)C1CC1)Nc1ncc(Cl)cc1Cl to CC(NC(=O)c1ccc(OC2CCN(C(=O)c3cccnc3)CC2)cc1)C1CC1 (stereo not shown), the “hERG current change (%, negative = inhibition) at 10uM” value falls from 8.23% to 3.32%.

Compared with COc1ccc(-c2nnnn2CCc2ccccc2)cc1, COc1cc(S(=O)(=O)NCc2ccccc2)ccc1-n1cnnn1 is higher in “hERG current change (%, negative = inhibition) at 10uM” value: -23.3% for the first, -11% for the second.

Compared with CC1CCN(c2nc(-c3ccccc3)c(C#N)c(=O)[nH]2)CC1, Cc1ccc(C)c(S(=O)(=O)N2CCN(C(=O)c3sccc3C)CC2)c1 is lower in “hERG current change (%, negative = inhibition) at 10uM” value: 23.9% for the first, -30.7% for the second.

First: CC(=O)c1ccc(NC(=O)CSCCO)cc1
Second: COCCn1nnnc1CN1CCC(NC(=O)c2ccc(Br)cc2)CC1
The “hERG current change (%, negative = inhibition) at 10uM” value of the first is higher: 10.5% for the first, -39% for the second.

Going from S=c1nccc(-c2ccc3c(c2)CCO3)[nH]1 to CCn1c(O)c(C=Nc2ccc(N3CCOCC3)c(Br)c2)c(=O)n(CC)c1=S, the “hERG current change (%, negative = inhibition) at 10uM” value rises from -9.24% to 2.18%.

With O=C(NCCCc1ccccc1)C(=O)NCC1OCCN1S(=O)(=O)c1ccc(F)cc1 (stereo not shown) the “hERG current change (%, negative = inhibition) at 10uM” value was 7.26%.
